# Over roughly 33,000 sequences, “E-score (-0.5 to 0.5)” has its median near -0.035; the highest 2% begin near 0.35. The list shows a part of the results.
# Molecular target: T1, Pdr3 (UniProt P33200)
# T1 sequence: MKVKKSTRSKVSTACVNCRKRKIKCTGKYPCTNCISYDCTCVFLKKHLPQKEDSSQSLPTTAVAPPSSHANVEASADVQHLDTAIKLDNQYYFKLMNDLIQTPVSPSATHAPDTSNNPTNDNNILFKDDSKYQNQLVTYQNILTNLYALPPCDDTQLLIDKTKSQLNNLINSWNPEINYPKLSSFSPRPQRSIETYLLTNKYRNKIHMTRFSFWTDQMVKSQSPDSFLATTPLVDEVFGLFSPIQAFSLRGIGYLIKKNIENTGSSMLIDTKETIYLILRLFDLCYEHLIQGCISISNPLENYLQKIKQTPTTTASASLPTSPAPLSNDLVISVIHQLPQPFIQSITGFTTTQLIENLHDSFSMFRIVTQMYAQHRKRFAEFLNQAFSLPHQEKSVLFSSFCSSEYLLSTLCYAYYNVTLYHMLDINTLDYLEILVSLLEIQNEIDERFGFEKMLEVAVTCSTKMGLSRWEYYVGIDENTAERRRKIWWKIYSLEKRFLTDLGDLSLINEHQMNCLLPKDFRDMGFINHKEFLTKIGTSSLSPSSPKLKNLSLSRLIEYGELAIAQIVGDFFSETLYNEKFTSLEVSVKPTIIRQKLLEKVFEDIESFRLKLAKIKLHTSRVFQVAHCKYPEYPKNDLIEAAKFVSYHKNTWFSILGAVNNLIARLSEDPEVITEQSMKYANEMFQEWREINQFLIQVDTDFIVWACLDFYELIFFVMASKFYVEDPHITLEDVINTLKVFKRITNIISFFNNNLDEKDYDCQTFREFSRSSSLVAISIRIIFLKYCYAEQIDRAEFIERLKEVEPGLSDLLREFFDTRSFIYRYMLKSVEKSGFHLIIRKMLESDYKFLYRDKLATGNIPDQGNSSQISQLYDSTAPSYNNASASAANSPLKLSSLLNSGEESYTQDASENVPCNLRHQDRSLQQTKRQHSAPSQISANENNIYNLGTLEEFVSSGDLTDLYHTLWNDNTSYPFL
# Assay: PBM E-score (8-mer binding enrichment) (E-score (-0.5 to 0.5)); higher = stronger / more preferred TF binding; most listed sequences are background and not binding sites
# Details: protein concentration: 200 nM; construct: GST-full length
# Procedure: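 Universal 'all 10-mer' protein binding microarrays (Agilent AMADID 015681) probed with GST-tagged S. cerevisiae TFs (full-length or DBD) made by in vitro transcription/translation (PURExpress), about 100-200 nM. Bound TF was detected with fluorescent anti-GST. Each ungapped 8-mer (which stands for itself and its reverse complement) is scored by the PBM enrichment score (E-score), a modified Wilcoxon-Mann-Whitney statistic from -0.5 to +0.5, computed with the Universal PBM Analysis Suite. Scale: above 0.35 generally sequence-specific binding.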
row,Sequence,PBM E-score
1,AAAAACTC,-0.0574
2,AACATCTA,-0.116
3,CCAACTAA,-0.0457
4,CACGGTCC,0.00578
5,CCACTTCA,0.0476
6,ATTACTGC,0.0652
7,GTAGAGAA,-0.0493
8,AGCTCCCA,-0.172
9,GCGATCGA,0.104
10,ATCAAACG,0.125
11,ACTTCGGC,0.0951
12,ATTGAAAA,0.0454
13,ATCCCGAT,0.302
14,GCTAATTA,0.0889
15,CAGATTCA,-0.112
16,ACCCTTCC,0.203
17,GTGGTAAA,-0.16
18,GATTCTGC,0.0967
19,CGCGGCCC,0.278
20,GAGCTGAC,0.19
21,CTTTCATC,-0.158
22,TCATACGA,-0.0474
23,CGTTAGGA,-0.00197
24,CGGTTTAA,0.0891
25,CATCAGAC,-0.0231

row,Sequence,PBM E-score
1,CACTATTA,0.0367
2,ACGCCCAT,0.0937
3,ACCCATGG,0.0459
4,CGATATTA,0.231
5,CCATGAGG,-0.105
6,GCAGAAAA,0.0694
7,CGGAAGAC,0.393
8,CTTTAGCA,-0.131
9,GCCTTAAA,-0.0926
10,ACATGTGG,-0.033
11,AAGTTGGA,-0.0399
12,GAGGGGAC,-0.0578
13,CGATTAAC,-0.0197
14,CATTACCG,0.0437
15,ACAGACCG,0.0876
16,ACACATCA,-0.0747
17,CCCGTCTA,0.135
18,AGGATTCG,0.063
19,AGCTTCGA,-0.102
20,CATGAGTA,-0.168
21,TCTGGACA,-0.0193
22,ACTGTCTC,0.0155
23,ACTTAAGT,-0.177
24,ATTGTGCG,0.043
25,ACAGAGCG,-0.219

row,Sequence,PBM E-score
1,GCCCATGA,0.0274
2,GCACGCCC,0.175
3,GAGTTTGC,0.0634
4,CTAAGCTC,-0.174
5,ATGGTGCG,-0.107
6,ACGGCCCT,-0.185
7,CACTTAAG,0.00117
8,AATGGCAG,-0.0843
9,ACATAACA,0.0167
10,AGGTGACA,-0.137
11,ATATTTGA,0.0182
12,ATGCCTTA,-0.316
13,AGTCACCA,-0.212
14,AATCATGT,-0.0895
15,GGTCCTCA,0.0438
16,GGAGTTAC,0.13
17,GACGATTA,0.0221
18,CCGACCCG,0.275
19,GAAGACGC,0.0621
20,CACCCCGG,0.236
21,AATCACAC,-0.0658
22,AGGTTACT,0.00384
23,CAATATCA,-0.0753
24,GTCAGAAC,-0.132
25,CAGCGGAA,0.429

row,Sequence,PBM E-score
1,CTCAACAG,-0.268
2,CTATCTTA,-0.0715
3,GCTAAATA,-0.18
4,CCGGGTGC,0.335
5,CAAATGTA,0.0363
6,CCTGCTAC,0.0463
7,ACAGAACA,0.0488
8,ACTCCGCA,0.154
9,ATCACAGC,-0.00136
10,AATGGGCC,0.179
11,CCCTGATC,0.0107
12,CTGTCATA,-0.255
13,ACCGGTCG,-0.052
14,CCCATCAC,-0.0661
15,CGAGAAGC,-0.0427
16,GCGGAGTA,0.245
17,ACCCGGGA,0.448
18,CACAATCG,0.0735
19,GAAACAGC,0.0605
20,CCGCTAAC,0.13
21,TAGGCGCA,0.0506
22,CCATGGCA,-0.0618
23,ATATAGGA,0.0313
24,GGTCGCAA,0.0838
25,GCGGGGGA,0.13

row,Sequence,PBM E-score
1,ATCACTTG,-0.189
2,CCATCACC,0.00462
3,ATGTGATC,-0.0525
4,CGTATAAA,0.16
5,GCCTATCA,-0.0216
6,ACTGTAGA,-0.11
7,CGGGGTAC,0.0885
8,CAGGTCGC,-0.0612
9,TCAAATAA,0.0815
10,ATTTCTCA,-0.226
11,ATGGGTTC,-0.109
12,AGGGTATA,-0.0377
13,GACCCAAC,-0.136
14,CCAAGGCA,-0.0524
15,ACCGTGTC,0.161
16,ACACTTCC,0.184
17,AATGTCGC,0.0447
18,GGGTCGAC,0.0291
19,CTCCGGCA,0.34
20,CAGCGTAC,-0.099
21,CTCCTTTC,0.0464
22,AAGCTTTA,-0.211
23,ACTCCGAG,0.28
24,GCATCTAC,-0.0209
25,CTGCTCTC,-0.141

row,Sequence,PBM E-score
1,GACGACCC,-0.104
2,CGCCGTAC,0.0518
3,ACAAAACC,0.0662
4,GACAGATC,0.0794
5,AACTCCCT,-0.238
6,CATTTATC,-0.125
7,ACCTCGGG,0.158
8,GAGGGTAA,-0.0969
9,ACTCAATG,0.0123
10,GTTTTATA,0.153
11,ACGATTCT,0.0192
12,ACGTGTCA,-0.118
13,GCGGTGAC,-0.135
14,TAAGGCCA,-0.0519
15,CTACGCGC,0.0629
16,GCGATTGA,-0.15
17,ACAGTTCT,0.082
18,CGAGCAAG,-0.0857
19,TCTGCGAA,-0.305
20,GCGGGGCA,0.129
21,CAGCTTTC,-0.0262
22,AACAGAAG,-0.0894
23,ACTCAGTA,-0.128
24,GACTCAGC,-0.192
25,CCACAAGC,-0.126

row,Sequence,PBM E-score
1,CAACGCCG,0.117
2,CCGTGTAA,0.117
3,CTACTCAA,-0.0942
4,AAGGCACC,-0.00529
5,ACGGTGAG,-0.00232
6,CATCCTGA,0.0884
7,CCATGGTA,-0.158
8,GAGATCGC,0.0558
9,ACACGTTG,-0.264
10,AGAAACGA,0.0182
11,ATGCCCCG,0.174
12,ACATCCCC,0.245
13,CCCCCAAA,-0.316
14,TACCGCAA,0.0565
15,CCTCTGAG,-0.0893
16,CTCCGTAA,0.185
17,CGCGACAG,0.076
18,CGCACAGA,-0.122
19,CCCATCTC,0.0797
20,AAGCGGAG,0.0882
21,GTAGGAGA,-0.0454
22,AAAGACAG,0.0703
